# Measured values from the supplement of paper PMC11417369.
# This is one part of the list.
# Test system: PfAP2-HC AP2 domain (GST-tagged)
# Assay: gcPBM binding intensity (ln(normalized median fluorescence intensity)); higher = stronger DNA binding
# Outline: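 Probes on an Agilent 4 × 180k array were primer-extended, double-stranded and 36 bp long, taken from intergenic genomic regions, with negative controls added. GST-tagged P. falciparum DNA-binding domains from E. coli, about 25 μg on average, were applied to the array for 1 h in 1× PBS containing 1% milk, 0.2 mg/ml BSA, 0.5% salmon testes DNA and 0.03% Triton X-100. Binding intensity, obtained after Alexa488 anti-GST antibody detection and a 488 nm scan, is the highest Masliner-normalised natural-log median intensity across replicate spots of either probe orientation.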
row,Sequence,gcPBM binding intensity (ln)
1,TATATATATATATAATGTACAGAAAAAAAAAAAAAA [XGTACX_site6141],9.58
2,AAAATTATGCAGTAGGTGCAATACCCTCGGCTTTTT [GTGCAC_site9556],9.55
3,TTTTTTTTTTTTTTTGGTACACATTTTGGTTAATGG [XGTACX_site5109],9.3
4,ATAAAAAGGTTTAAAAAAAAAAAAAAAAAAAAAAAA [CACACA_negctrl_site412],8.72
5,CTTGTGCTTTATAGGGTGCACATTTTGTTTTGGTAA [GTGCAC_site9899],9.61
6,TTATTAATTATATATAGTACACATTTCACAGATGGG [XGTACX_site2349],9.49
7,TGAACACATACATACACACACACAAAAAAAAAAAAA [CACACA_site392],10.3
8,TTATTTATGAGGGTGACACACAAAAGAGTGTTAAGA [CACACA_site277],9.79
9,AAAAAAAAACACGCATGTACATAAAAATAATCATAC [XGTACX_site1086],10.6
10,AAATAAAATAAAATAAAATAAAATAAAATAAAATAA [XGTACX_negctrl_site142],9.39
11,AATATCTGAAAATAAAGTACAAACATATTATAAATA [XGTACX_site5738],9.67
12,TATTTCAAATGTTATGTGCACATATTAATCCTACTT [GTGCAC_site9738],9.8
13,TACTTATTTGATTGGGTGCATATATATAGTATGTAT [GTGCAC_site9845],9.75
14,AATAATAATTTAAAAAGTACATTCTAATAAACACGT [XGTACX_site1444],9.75
15,ATTATTGCAATTTAATGTACATAATACAAATTTGCC [XGTACX_site2729],9.61
16,AATGAATAAATAAACACACACACATATATATATATG [CACACA_site18],10.7
17,TATACGTATACCTATACACACATATATATATATATA [CACACA_site1273],9.93
18,AATAATAATAGAAACACACACACATTTTTAAGAATA [CACACA_site6692],10.5
19,TGAAAAAAAAAATGCACACGCATACAGATAATATGT [CACACA_site4526],9.97

row,Sequence,gcPBM binding intensity (ln)
1,GATGAAATATCATTACGTACACAATAGTTTGTATTT [XGTACX_site5143],9.88
2,TCCTTAAAAAAACCTTAACACACATAAACTATAATT [CACACA_site9001],9.77
3,TTTTTTTTTAAGTTTGCACACATGGAAGACAAAAAT [CACACA_site2505],9.67
4,ATGAATGAATACGTTTTACACACTTGAATATAATTT [CACACA_site8237],9.7
5,GTATATTGTACCATCACACATGTAAAACATAGATGT [CACACA_site5359],9.78
6,AACATAACAAAAAAAAAAAAAAATATATATATATAT [TGCATGCA_negctrl_site370],10.1
7,TATTTCACAAAAAAAAAAAAAAAAAAGAAGCAAAAA [CACACA_negctrl_site1040],9.34
8,TATTTTATATACAGTGGTACTTTTTTTTTTTTTTTT [XGTACX_site2475],9.58
9,AAAAAAAAAAAAAAATCACACACAATATGAATTTAT [CACACA_site8100],9.83
10,ACATATATATTATAAGCATGCATGAGAAAATTTTTA [TGCATGCA_site1054],9.87
11,AATTGCTTCAAAATTAAACACACACTAATAAAAAAA [CACACA_site8855],9.93
12,AAAAAAAAAAAAAAAACACACATTTGAAGAAAAAAA [CACACA_site7389],9.89
13,TAATACATAAATAATGTGCACATGGAAATATATCTT,10.2
14,TGTAATACATGTTGTTGTACAATATCTTTAACTTTT [XGTACX_site1219],9.79
15,TATTGTAAAAAAGCAAAATTTATCACCTCCTTATTT [CACACA_negctrl_site172],9.58
16,TATAACTATGGGTGTACACATTAATCGTTTTTCTTT [CACACA_site5196],9.84
17,TACACAAAAATAAACACACACACATATAAATAAATA [CACACA_site6599],10.4
18,CCACTAAAGGCATATACACACATTTTTTAAATTGCC [CACACA_site2839],9.77
19,ATTTATATAAAATTAAAATAATACAAATTTATTCAT [GTGCAC_negctrl_site305],9.27

row,Sequence,gcPBM binding intensity (ln)
1,TTTTCGCTTTTATAAAATTATATGAAAAAACTAAAA [XGTACX_negctrl_site139],9.15
2,TTATGGAAAAATATAACACACAATGATTTTTTATAA [CACACA_site1831],9.64
3,TTTTTTACATTCTGCACACAATTTATTTTTTTTTTT [CACACA_site4188],10
4,CAAATTTTTAAAAATGCATGTTCATCCATCCCATAT [TGCATGCA_site467],9.56
5,TTTGTATGATCATAAAGTACTAATTTACATTCAGCA [XGTACX_site8596],9.49
6,ATATATATATATAGAAGTACTCTTATATATTTTATA [XGTACX_site1384],9.54
7,AAAAAAAAAAAAAATACACACACATAAAAAAAAAAA [CACACA_site8555],10.9
8,GATATGGAATATATGTGTACATATATATATATTATA [XGTACX_site1724],9.77
9,GTAGAATCAGTATTCACACATAAATGTATCCAAATG [CACACA_site5395],9.6
10,TTTTCATTCTTATATAAATATTATTTTATATAAAAT [GTGCAC_negctrl_site674],9.4
11,ATATATGAAAATATATGTACACAACATATAAAATAG [XGTACX_site5132],9.94
12,AATTATATACCATGCACACAAATATTCATACAGGAA [CACACA_site4057],9.97
13,AAAATATATCAAAACACACTCACATATAATACTTAC [CACACA_site6031],10.4
14,TATATACTTATATACTGTACTCATCATCTTTTAAAG [XGTACX_site6099],9.45
15,TAATATATCTATAATACACACTATTCTAATCACATA [CACACA_site6731],9.65
16,TTTTTTTTTTTTTAAACATGCAAAATATATAATTTT [TGCATGCA_site633],9.26
17,TAGAAACTATGTAATGCACACCAAAATAAAATTATT [CACACA_site8578],9.89
18,TTTTGGATACTTCATTTGTCCTGTTTTTTTTTTTTA [CACACA_negctrl_site399],9.71
